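Five concentrations, 48 hours, 96-well plates. Abbreviation: GI50, concentration required for 50% inhibition of growth.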 Some entries of the source have several records that differ or are many. They are shown here; other results are not. The source may hold further records. Records of one sample usually come from different ranges of test concentrations, which the source does not state; some values may only mark the edge of a range.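 TGI is the concentration that stops growth completely.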
What was measured:
Test in all cases: NCI anticancer screen, dose series, 48 h
[1] = tested on: UACC-257 melanoma
[2] = tested on: U251 CNS
[3] = tested on: EKVX NSCLC
[4] = tested on: RXF 393 renal
[5] = tested on: HCT-116 colon
[6] = tested on: SK-OV-3 ovarian
[7] = tested on: NCI/ADR-RES ovarian
[8] = tested on: OVCAR-5 ovarian
[9] = tested on: SNB-75 CNS
[10] = tested on: OVCAR-4 ovarian
[11] = tested on: MOLT-4 leukemia
[12] = tested on: LOX IMVI melanoma
[13] = tested on: NCI-H226 lung
[14] = tested on: SK-MEL-28 melanoma
[15] = tested on: NCI-H23 lung
[16] = tested on: MALME-3M melanoma
[17] = tested on: KM12 colon
[18] = tested on: SF-268 CNS
[19] = tested on: NCI-H522 lung
[20] = tested on: CCRF-CEM leukemia
[21] = tested on: OVCAR-3 ovarian
[22] = tested on: RPMI-8226 leukemia
[23] = tested on: SK-MEL-5 melanoma
[24] = tested on: SN12C renal
[25] = tested on: SW-620 colon
[26] = tested on: OVCAR-8 ovarian
[27] = tested on: HCC-2998 colon
[28] = tested on: UO-31 renal
[29] = tested on: A498 renal
[30] = tested on: HOP-62 NSCLC
[31] = tested on: COLO 205 colon
[32] = tested on: SF-539 CNS
[33] = tested on: UACC-62 melanoma
[34] = tested on: SK-MEL-2 melanoma
[35] = tested on: MCF7 breast
[36] = tested on: T-47D breast
[37] = tested on: M14 melanoma
[38] = tested on: SF-295 CNS
[39] = tested on: TK-10 renal
[40] = tested on: K-562 leukemia
[41] = tested on: BT-549 breast
[42] = tested on: IGROV1 ovarian
[43] = tested on: MDA-MB-231 breast
[44] = tested on: HOP-92 NSCLC
[45] = tested on: HCT-15 colon
[46] = tested on: HL-60(TB) leukemia
[47] = tested on: HT29 colon
[48] = tested on: CAKI-1 renal
[49] = tested on: NCI-H460 lung
[50] = tested on: A549 NSCLC
[51] = tested on: ACHN renal

## C=Cc1cc(OC)c2c(c1)c(=O)oc1c2cc(OC)c2c(O)ccc(C3OC(C)C(O)C(C)(O)C3O)c21 (stereo unspecified)
[1]
  GI50: 2.04 nM [1 test] and 30.4 nM [mean of 3 tests]
  TGI: 7.14 nM [1 test] and 73.1 nM [mean of 3 tests]
[2]
  TGI: 7.77 nM and 293 nM
[3]
  TGI: 4.46 nM and 145 nM
[4]
  TGI: 0.678 nM and 24.9 nM
[5]
  TGI: 7.56 nM and 293 nM
[6]
  TGI: 9.72 nM and 388 nM
[7]
  TGI: 3.24 nM and 110 nM
[8]
  TGI: 1.44 nM and 250 nM
[9]
  TGI: 2.04 nM and 52.2 nM
[10]
  TGI: 8.2 nM and 232 nM
[11]
  TGI: 1.21 nM and 225 nM
[12]
  TGI: 1.72 nM and 233 nM
[13]
  GI50: 1.58 nM [1 test] and 277 nM [mean of 3 tests]
  TGI: 5.19 nM [1 test] and 435 nM [mean of 3 tests]
[14]
  GI50: 1.2 nM [1 test] and 66.5 nM [mean of 2 tests]
  TGI: 2.76 nM [1 test] and 195 nM [mean of 2 tests]
[15]
  TGI: 0.758 nM and 85.9 nM
[16]
  TGI: 3.46 nM and 157 nM
[17]
  GI50: 0.618 nM [1 test] and 39.1 nM [mean of 3 tests]
  TGI: 2.89 nM [1 test] and 493 nM [mean of 3 tests]
[18]
  TGI: 1.48 nM and 97.6 nM
[19]
  GI50: 0.336 nM [1 test] and 48.5 nM [mean of 3 tests]
  TGI: 2.2 nM [1 test] and 62.8 nM [mean of 3 tests]
[20]
  TGI: 0.597 nM and 276 nM
[21]
  TGI: 6.46 nM and 150 nM
[22]
  TGI: 3.18 nM and 67.5 nM
[23]
  GI50: 1.24 nM [1 test] and 44.8 nM [mean of 5 tests]
  TGI: 4.1 nM [1 test] and 69.8 nM [mean of 5 tests]
[24]
  TGI: 6.15 nM and 128 nM
[25]
  TGI: 8.39 nM and 764 nM
[26]
  TGI: 7.46 nM and 108 nM
[27]
  TGI: 7.16 nM and 129 nM
[28]
  TGI: 5.68 nM and 119 nM
[29]
  TGI: 3.79 nM and 103 nM
[30]
  TGI: 0.59 nM and 38 nM
[31]
  GI50: 1.82 nM [1 test] and 56.9 nM [mean of 3 tests]
[32]
  TGI: 0.433 nM and 63.7 nM
[33]
  TGI: 2.96 nM and 61.7 nM
[34]
  TGI: 2.65 nM and 64.9 nM

## COC1=C2C[C@@H](C)C[C@@H](OC)[C@@H](O)[C@H](C)/C=C(\C)[C@@H](OC(N)=O)[C@H](OC)/C=C\C=C(/C)C(=O)NC(=CC1=O)C2=O
[35]
  TGI: 4.8 µM, > 50 µM, 20.9 µM, 3.32 µM
[3]
  TGI: 6.37, 15.4, 23.5, 1.58 µM
[4]
  TGI: 5.93 µM and 457 nM
[36]
  GI50: 5.77 nM, 6.22 µM [1 test] and 21.4 nM [mean of 10 tests]
  TGI: 37.5 µM [1 test] and 1.97 µM [mean of 10 tests]
[6]
  GI50: 6.89 µM [1 test] and 372 nM [mean of 10 tests]
[37]
  TGI: 3.35 µM, < 5 nM [1 test] and 13.7 µM [mean of 13 tests]
[38]
  TGI: 14.1 µM, 16.1 µM [1 test] and 24 µM [mean of 11 tests] and 4.46 µM [mean of 4 tests]
[8]
  TGI: 6.65 µM, 10.9 µM [1 test] and 20.5 µM [mean of 13 tests] and 8.35 µM [mean of 5 tests]
[39]
  TGI: 5.08 µM, < 5 nM [1 test] and 14.4 µM [mean of 13 tests]
[10]
  GI50: 6.03 µM [1 test] and 1.7 µM [mean of 13 tests] and 128 nM [mean of 2 tests]
  TGI: 14.2 µM [1 test] and 7.4 µM [mean of 13 tests] and 1.09 µM [mean of 2 tests]
[11]
  TGI: 56.3 nM, > 50 µM, 4.95 µM, 279 nM
[40]
  TGI: 37.5 µM [1 test] and 20.7 µM [mean of 12 tests] and 2.21 µM [mean of 4 tests]
[13]
  TGI: 12.6 µM, 44.7 nM, 18.5 µM, 4.03 µM
[14]
  TGI: 35.8 nM, 37.5 µM [1 test] and 3.5 µM [mean of 5 tests] and 15.3 µM [mean of 9 tests]
[15]
  TGI: 29.7 nM, < 5 nM, 9.57 µM, 797 nM
[17]
  TGI: 8.19 µM, 5.24 µM [1 test] and 3.52 µM [mean of 12 tests] and 1.89 µM [mean of 5 tests]
[18]
  TGI: 6.68 µM, 8.27 µM [1 test] and 14.6 µM [mean of 12 tests] and 3.57 µM [mean of 5 tests]
[41]
  GI50: 47.4 nM [1 test] and 960 nM [mean of 10 tests]
  TGI: 718 nM [1 test] and 18.9 µM [mean of 10 tests]
[42]
  TGI: > 50 µM [1 test] and 7.73 µM [mean of 11 tests] and 2.12 µM [mean of 5 tests]
[43]
  TGI: 356 nM, < 5 nM [1 test] and 3.33 µM [mean of 10 tests]
[19]
  TGI: 44 nM, 2.23 µM, 1.96 µM, 241 nM
[44]
  TGI: 17.4 µM, 6.92 µM [1 test] and 749 nM [mean of 10 tests] and 782 nM [mean of 5 tests]
[21]
  TGI: 4.08 µM, 5.28 µM [1 test] and 2.44 µM [mean of 5 tests] and 8.55 µM [mean of 8 tests]
[45]
  TGI: 5.83 µM, 260 nM [1 test] and 13 µM [mean of 13 tests] and 3.49 µM [mean of 5 tests]
[22]
  TGI: 31.6 µM, 89.3 nM, 11 µM, 2.46 µM
[46]
  TGI: 35.4 µM, > 50 µM [1 test] and 428 nM [mean of 12 tests] and 78.1 nM [mean of 4 tests]
[24]
  TGI: 325 nM, < 5 nM, 12.4 µM, 1.24 µM
[25]
  TGI: 14, 12.3, 9, 1.99 µM
[26]
  TGI: 10.9, 49.6, 9.01, 3.28 µM
[27]
  GI50: 9.69 nM [1 test] and 494 nM [mean of 13 tests] and 104 nM [mean of 3 tests]
  TGI: 10.4 µM [mean of 13 tests] and 842 nM [mean of 3 tests]
[47]
  TGI: 37.5 µM [1 test] and 4.83 µM [mean of 13 tests] and 1.16 µM [mean of 5 tests]
[48]
  TGI: 8.32 µM, 3.1 µM [1 test] and 16.2 µM [mean of 11 tests] and 4.3 µM [mean of 5 tests]
[28]
  TGI: 5.83 µM, > 50 µM [1 test] and 7.69 µM [mean of 13 tests] and 4.14 µM [mean of 5 tests]
[29]
  GI50: 256 nM [mean of 4 tests] and 2.91 µM [mean of 8 tests]
[49]
  TGI: 4.23 µM, > 50 µM [1 test] and 18.9 µM [mean of 12 tests] and 1.83 µM [mean of 5 tests]
[30]
  TGI: 7.33 µM [1 test] and 18.6 µM [mean of 13 tests] and 1.64 µM [mean of 4 tests]
[31]
  TGI: 37.5 µM, 522 nM, 1.35 µM
[50]
  TGI: 9.93 µM, > 50 µM [1 test] and 18.6 µM [mean of 11 tests] and 4.41 µM [mean of 5 tests]
[33]
  TGI: 2.65 µM, 35.6 nM, 7.65 µM, 3.11 µM
[34]
  TGI: 76.8 nM, > 50 µM [1 test] and 9.69 µM [mean of 10 tests] and 2 µM [mean of 5 tests]
[51]
  GI50: 1.38 nM, 45.4 nM [1 test] and 98.9 nM [mean of 13 tests]
  TGI: 47.7 nM, 5.93 µM [1 test] and 15.1 µM [mean of 13 tests]

Source: PubChem BioAssay (NCI)
